Measurements: PubChem BioAssay AID904 (National Center for Advancing Translational Sciences (NCATS), 2007)
Among all 55,000 compounds or so, about 530 (0.96%) were called active. Inconclusive results, whose numbers are uncertain, are shown with a selection of clear calls. Calls follow the shape of the dose curve; as a rule, active = well fitted cell-killing curve with a large enough effect; inconclusive = small, poorly fitted or top-dose-only effect; inactive = no such curve, though single readings can be large or run the other way. Potencies beside an inconclusive call are fits to weak or partial responses and may not hold up.

Experiment: qHTS Screen for Compounds that Selectively Target Cancer Cells with p53 Mutations: Cytotoxicity of p53 Null Cells at the Nonpermissive Temperature; also: nearly all actives have a fitted effect of over 50% in size;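 as to activity, negative = cell killing: 0% = DMSO only and -100% = full killing by 100 µM tamoxifen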
Conditions: H1299 p53-null (neo) cells, 39C, ATPlite viability, 24 h; activity, negative = cell killing: at 46.1 µM (top of the series)
Method in brief: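 Following overnight plating at 37C (600 cells/well), H1299-neo or H1299-p53A138V cells are dosed up to 46 uM. Incubation lasts 24 hr at 39C before ATP detection.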
Potency is read from the fitted curve at half-maximal effect; tags tell the direction and shape of the fitted curve.

Row | SMILES | Potency | activity, negative = cell killing
1 | Cc1ccc(C)c(S(=O)(=O)NCCc2csc(-c3ccc(Cl)cc3)n2)c1 | inconclusive: 25.1 µM [cytotoxic, partial curve] | 
2 | CCCCS(=O)(=O)c1oc(-c2ccc(F)cc2)nc1S(=O)(=O)c1ccccc1 | inconclusive: 12.6 µM [cytotoxic, single point] | 
3 | O=C(NCCc1ccc(Cl)cc1)c1ccc2c(c1)N(Cc1c(F)cccc1Cl)C(=O)CS2 | inconclusive: 0.0126 µM [cytotoxic, full curve, poor fit] | 
4 | CCOC(=O)C1CCCN(S(=O)(=O)c2cc3c(cc2C)NC(=O)CO3)C1 (stereo not given) | inconclusive: 11.2 µM [cytotoxic, partial curve] | 
5 | c1ccc(-c2cn3c(n2)SCC3)cc1 | inconclusive: 5.62 µM [cytotoxic, partial curve, poor fit] | 
6 | CCCOc1ccccc1C(=O)Nc1ccc(-c2nc3ccc(C)cc3s2)cc1 | inconclusive: 31.6 µM [cytotoxic, single point] | 
7 | CCOC(=O)c1ccc(NC(=O)Cn2cc(S(=O)(=O)Cc3ccccc3F)c3ccccc32)cc1 |  | inactive: -3.04%
8 | CC(Oc1ccccc1)C(=O)Nc1ccc(C(=O)OCc2cc(=O)n3ccsc3n2)cc1 (stereo not given) | inconclusive: 0.02 µM [cytotoxic, full curve, poor fit] | 
9 | CCc1ccc(-c2cn3c(n2)sc2cc(C(=O)NCCCc4ccccc4)ccc23)cc1 | inconclusive: 0.631 µM [cytotoxic, full curve, poor fit] | 
10 | O=C(CSC1=Nc2ccccc2C2=NC(Cc3ccccc3)C(=O)N12)Nc1ccccc1 (stereo not given) |  | inactive: 4.22%
11 | COc1cccc(OCc2nc3ccccc3n2C)c1 | inconclusive: 20 µM [cytotoxic, single point] | 
12 | CCOC(=O)c1cccc(NC(=O)C2(S(=O)(=O)c3ccc(C)cc3)CC2)c1 | inconclusive: 0.501 µM [cytotoxic, full curve, poor fit] | 
13 | CC(=O)c1ccc(NC(=O)/C=C/c2ccc(C)o2)cc1 | inconclusive: 10 µM [cytotoxic, partial curve] | 
14 | Cc1ccc(Cl)cc1N1CCN(C(=O)c2cnn(-c3ccc(Cl)cc3)c2C2CCNCC2)CC1 | inconclusive: 35.5 µM [cytotoxic, single point] | 
15 | Cc1ccc(CCNC(=O)c2ccc(Cn3c(=O)c4cccn4c4cccnc43)cc2)cc1 | inconclusive: 6.31 µM [cytotoxic, partial curve, poor fit] | 
16 | Cc1ccc(/C=C/C(=O)Nc2nc(-c3cccs3)ns2)cc1 |  | inactive: -17.4%
17 | CCN(CC)CCCNc1cc(-c2ccccc2)nc(C)n1 | inconclusive: 0.316 µM [cytotoxic, full curve] | 
18 | CCc1ccc(NC(=O)COC(=O)CCCC2=NS(=O)(=O)c3ccccc3N2)cc1 |  | inactive: -0.632%
19 | COc1cc(-c2nc(-c3ccc4c(c3)[nH]c(=O)n4C)no2)cc(OC)c1OC | inconclusive: 0.0316 µM [cytotoxic, full curve, poor fit] | 
20 | COc1ccc(S(=O)(=O)NCCc2nnc3ccc(SCC(=O)Nc4cc(C)cc(C)c4)nn23)cc1 | inconclusive: 31.6 µM [cytotoxic, single point] | 
21 | CCOC(=O)C(=O)NCC(c1cccnc1)N1CCN(c2ccccc2)CC1 (stereo not given) |  | inactive: -1.26%
22 | Cc1cc(C)cc(NC(=O)CCc2nnc3n(C)c(=O)c4sccc4n23)c1 |  | inactive: 12.7%

Row | SMILES | Potency | activity, negative = cell killing
23 | Cc1ccc(NC(=O)Cn2c(=O)n(CC(=O)NCCc3ccccc3)c(=O)c3ccccc32)cc1C | inconclusive: 25.1 µM [cytotoxic, single point] | 
24 | CCOC(=O)CC(NC(=O)c1cc2c(=O)n3cccc(C)c3nc2s1)c1ccc(OCC)c(OC)c1 (stereo not given) |  | inactive: -8.07%
25 | CN1CCN(Cc2c(O)ccc3cc(-c4ccc(Cl)cc4)c(=O)oc23)CC1 |  | inconclusive: -32.6% [cytotoxic]
26 | CCCN1C(=O)C(O)(CC(=O)c2ccc(C(C)C)cc2)c2ccccc21 (stereo not given) |  | inactive: -5.78%
27 | CCc1ccccc1NS(=O)(=O)c1ccc2c(c1)CCCN2C(=O)C1CCC1 | inconclusive: 6.31 µM [cytotoxic, full curve] | 
28 | COc1ccc(NC(=O)c2cc(S(=O)(=O)N3CCCC3)ccc2OC)cc1 | inconclusive: 20 µM [cytotoxic, single point] | 
29 | COc1cccc(C(=O)Oc2c(Sc3ccc(C)cc3)c(C)nn2C(C)(C)C)c1OC | inconclusive: 35.5 µM [cytotoxic, partial curve] | 
30 | Cc1ccc(CNC(=O)C(C)n2nc(C)c3sc4ccccc4c3c2=O)cc1 (stereo not given) | inconclusive: 0.1 µM [cytotoxic, full curve, poor fit] | 
31 | Cc1cc(C)c(NC(=O)Cn2c(=O)n(Cc3ccc(C(=O)NCc4ccc5c(c4)OCO5)cc3)c(=O)c3ccccc32)c(C)c1 | inconclusive: 31.6 µM [cytotoxic, single point] | 
32 | Cc1cccc(C(=O)Nc2ccc(NC(=O)Cc3ccc(Cl)cc3)cc2)c1 | inconclusive: 2.82 µM [cytotoxic, single point] | 
33 | Cc1cc(C)cc(NC(=O)c2cc(S(=O)(=O)N3CCc4ccccc43)cn2C)c1 | inconclusive: 15.8 µM [cytotoxic, single point] | 
34 | COc1ccc(-c2csc3ncnc(Nc4cc(OC)cc(OC)c4)c23)cc1 | inconclusive: 7.94 µM [cytotoxic, partial curve] | 
35 | COc1ccc(Cn2c(CO)cnc2SCc2ccccc2C)cc1 |  | inactive: 12.8%
36 | COc1ccc(NC(=O)c2ccco2)cc1NC(=O)c1c(OC)cccc1OC | inconclusive: 1.26 µM [cytotoxic, single point] | 
37 | CC(=O)c1ccc(N2CCN(C(=O)Nc3ccc(C(C)C)cc3)CC2)cc1 | inconclusive: 12.6 µM [cytotoxic, partial curve] | 
38 | COc1ccc(NS(=O)(=O)c2ccc3[nH]c4c(c3c2)CCCCC4)cc1 |  | inactive: -1.95%
39 | CCc1ccc(C(=O)c2cn(CC(=O)Nc3cc(F)ccc3F)c3nc(C)ccc3c2=O)cc1 |  | inactive: -21.5%
40 | Cn1nc(C(=O)N2CCN(c3ccc(F)cc3)CC2)c2c1-c1ccccc1SC2 | inconclusive: 31.6 µM [cytotoxic, single point] | 
41 | N#Cc1ccccc1Cn1cnc2nc3c(cc2c1=O)CCCC3 | inconclusive: 0.158 µM [cytotoxic, full curve, poor fit] | 
42 | COc1ccccc1NC(=O)c1sc2nc3c(cc2c1N)CN(Cc1ccccc1)CC3 |  | inconclusive: -74.4% [cytotoxic]
43 | CCNC(=O)c1c(NC(=O)c2nc(S(=O)(=O)CC)ncc2Cl)sc2c1CCCC2 | active: 25.1 µM | 
44 | CN(C)CCN(Cc1ccco1)C(=O)c1oc2ccccc2c1NC(=O)c1cccc(F)c1 | active: 12.6 µM | 

Row | SMILES | Potency | activity, negative = cell killing
45 | CCN(CC)S(=O)(=O)c1ccc2c(c1)N(CC(=O)NCCCN1CCN(c3cc(Cl)ccc3C)CC1)C(=O)CO2 | inconclusive: 25.1 µM [cytotoxic, single point] | 
46 | Oc1ccc(NCc2ccc(OCc3ccccc3)cc2)cc1 | inconclusive: 31.6 µM [cytotoxic, single point] | 
47 | N#C/C(=C\c1ccc(-c2cccc(Cl)c2)o1)C(=O)Nc1cccc(C(F)(F)F)c1 | inconclusive: 12.6 µM [cytotoxic, single point] | 
48 | Cc1ccc(S(=O)(=O)CCC(=O)N2CCN(c3nc4c(C)c(C)ccc4s3)CC2)cc1 |  | inactive: 5.38%
49 | CCOC(=O)c1cc(-c2ccc(C)cc2)n(CC(=O)Nc2ccc(OC)cc2OC)c1C |  | inconclusive: -33.5% [cytotoxic]
50 | CCc1nnc2c(Nc3ccccc3Br)nc3ccccc3n12 | inconclusive: 2.51 µM [cytotoxic, partial curve] | 
51 | COC(=O)c1cc(C)nc2c1c(=O)nc(SCc1ccccc1Cl)n2C1CC1 | inconclusive: 28.2 µM [cytotoxic, partial curve] | 
52 | Cc1ccc(CSc2nc3ccncc3n2Cc2nc(-c3ccccc3C)oc2C)cc1 | active: 6.31 µM | 
53 | CC(C)c1ccccc1NC(=O)Cn1cnc2c1c(=O)n(C)c(=O)n2C |  | inactive: -5.71%
54 | CCS(=O)(=O)Nc1ccc(-c2cn3c(C)csc3n2)cc1 | inconclusive: 11.2 µM [cytotoxic, single point] | 
55 | O=C(Cn1cc(C(=O)c2cccs2)c2ccccc21)Nc1ccc(Br)cc1 | inconclusive: 7.08 µM [cytotoxic, partial curve] | 
56 | CCC(CC)C(=O)Nc1cc(-c2nc3cccnc3s2)ccc1C | inconclusive: 12.6 µM [cytotoxic, partial curve] | 
57 | CC(C)CC(=O)OCc1cc(=O)n2nc(C3CCCCC3)sc2n1 |  | inactive: -5.79%
58 | COc1ccccc1CCNC(=O)C1CCN(c2nnc(C)c3c(C)n(-c4ccc(C)cc4)nc23)CC1 | active: 10 µM | 
59 | Cn1c(C(=O)NCc2cccc(Cl)c2)cc2oc3ccccc3c21 | inconclusive: 7.94 µM [cytotoxic, partial curve] | 
60 | COc1cccc(N2CCN(S(=O)(=O)c3cc(Br)cc4c3N(C(=O)C3CC3)CC4)CC2)c1 |  | inactive: -22.6%
61 | O=C(Nc1ccc2oc(-c3ccccc3F)nc2c1)c1ccccc1Cl | inconclusive: 20 µM [cytotoxic, partial curve, poor fit] | 
62 | Cc1cc(C)c(NC(=O)C2CCN(c3nc4ccccc4[nH]3)CC2)c(C)c1 | inconclusive: 3.16 µM [cytotoxic, full curve, poor fit] | 
63 | CCc1ccc(C2c3c(-c4ccccc4O)n[nH]c3C(=O)N2Cc2ccncc2)cc1 (stereo not given) | inconclusive: 31.6 µM [cytotoxic, single point] | 
64 | CCOC(=O)c1ccccc1NC(=O)N1CCc2c(sc(C)c2CC)C1c1ccccc1 (stereo not given) |  | inactive: 3.93%
65 | CCCCN1C(=O)c2[nH]nc(-c3ccccc3O)c2C1c1cccc(OCc2ccccc2)c1 (stereo not given) | inconclusive: 35.5 µM [cytotoxic, single point] | 
